# Results from the supplement of paper PMC8728848.
# The other results are listed elsewhere or left out.
# B1: CBM13 2a (Mycobacterium tuberculosum), P64849 (protein)
# chain: DGPVQLKSRLGDVCLDAPSGSWFSPLVINPCNGTDFQRWNLTDDRQVESVAFPGECVNIGNALWARLQPCVNWISQHWTVQPDGLVKSDLDACLTVLGGPDPGTWVSTRWCDPNAPDQQWDSVPLEHHHHHH
# Key:
# Test in all cases: glycan array binding signal (z-score within array); higher = stronger binding
# Details in all cases: glycan notation: IUPAC condensed, linker removed
# [1] = target: Gal(b1-4)GlcNAc(b1-6)GalNAc
# In short: (§1)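 Glycan array data were curated from 3228 arrays in the Consortium for Functional Glycomics database and kept only where the protein sequence was available. Glycan names were converted to IUPAC-condensed notation, and columns mapping to the same glycan were averaged. The binding signal is a within-array Z-score, averaged across arrays of the same protein sequence at different concentrations or buffers and across linkers. Negative Z-scores can be read as non-binding.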
# [2] = target: Gal(b1-4)GlcNAc(b1-6)[Gal(b1-3)]GalNAc
# In short: as §1
# [3] = target: Gal(b1-4)GlcNAc(b1-6)[Gal(b1-4)GlcNAc(b1-3)]GalNAc
# In short: as §1
# Gal(b1-4)GlcNAc6P = target: Gal(b1-4)GlcNAc6P
# In short: as §1
# Gal(b1-6)Gal = target: Gal(b1-6)Gal
# In short: as §1
# Gal3S(b1-3)GalNAc = target: Gal3S(b1-3)GalNAc
# In short: as §1
# Gal3S(b1-3)GlcNAc = target: Gal3S(b1-3)GlcNAc
# In short: as §1
# [4] = target: Gal3S(b1-3)[Fuc(a1-4)]GlcNAc
# In short: as §1
# Gal3S(b1-4)Glc = target: Gal3S(b1-4)Glc
# In short: as §1
# Gal3S(b1-4)Glc6S = target: Gal3S(b1-4)Glc6S
# In short: as §1
# Gal3S(b1-4)GlcNAc = target: Gal3S(b1-4)GlcNAc
# In short: as §1
# [5] = target: Gal3S(b1-4)[Fuc(a1-3)]Glc6S
# In short: as §1
# [6] = target: Gal3S(b1-4)[Fuc(a1-3)]GlcNAc
# In short: as §1
# [7] = target: Gal3S(b1-4)[Fuc(a1-3)]GlcNAc6S
# In short: as §1
# Gal3S4S(b1-4)GlcNAc = target: Gal3S4S(b1-4)GlcNAc
# In short: as §1
# Gal3S6S(b1-4)GlcNAc = target: Gal3S6S(b1-4)GlcNAc
# In short: as §1
# Gal3S6S(b1-4)GlcNAc6S = target: Gal3S6S(b1-4)GlcNAc6S
# In short: as §1
# Gal4S(b1-4)GlcNAc = target: Gal4S(b1-4)GlcNAc
# In short: as §1
# Gal4S6S(b1-4)GlcNAc = target: Gal4S6S(b1-4)GlcNAc
# In short: as §1
# Gal6P(b1-4)GlcNAc = target: Gal6P(b1-4)GlcNAc
# In short: as §1
# Gal6S(b1-3)GlcNAc = target: Gal6S(b1-3)GlcNAc
# In short: as §1
# Gal6S(b1-3)GlcNAc6S = target: Gal6S(b1-3)GlcNAc6S
# In short: as §1
# Gal6S(b1-4)Glc = target: Gal6S(b1-4)Glc
# In short: as §1
binder,measurement,setting,value
B1,glycan array binding signal (z-score),[1],-0.222
same,glycan array binding signal (z-score),[2],-0.238
same,glycan array binding signal (z-score),[3],-0.187
same,glycan array binding signal (z-score),Gal(b1-4)GlcNAc6P,-0.288
same,glycan array binding signal (z-score),Gal(b1-6)Gal,-0.005
same,glycan array binding signal (z-score),Gal3S(b1-3)GalNAc,-0.247
same,glycan array binding signal (z-score),Gal3S(b1-3)GlcNAc,-0.285
same,glycan array binding signal (z-score),[4],-0.215
same,glycan array binding signal (z-score),Gal3S(b1-4)Glc,-0.159
same,glycan array binding signal (z-score),Gal3S(b1-4)Glc6S,-0.241
same,glycan array binding signal (z-score),Gal3S(b1-4)GlcNAc,-0.284
same,glycan array binding signal (z-score),[5],0.013
same,glycan array binding signal (z-score),[6],-0.425
same,glycan array binding signal (z-score),[7],-0.272
same,glycan array binding signal (z-score),Gal3S4S(b1-4)GlcNAc,-0.265
same,glycan array binding signal (z-score),Gal3S6S(b1-4)GlcNAc,-0.326
same,glycan array binding signal (z-score),Gal3S6S(b1-4)GlcNAc6S,-0.097
same,glycan array binding signal (z-score),Gal4S(b1-4)GlcNAc,-0.154
same,glycan array binding signal (z-score),Gal4S6S(b1-4)GlcNAc,-0.102
same,glycan array binding signal (z-score),Gal6P(b1-4)GlcNAc,-0.708
same,glycan array binding signal (z-score),Gal6S(b1-3)GlcNAc,-0.188
same,glycan array binding signal (z-score),Gal6S(b1-3)GlcNAc6S,-0.399
same,glycan array binding signal (z-score),Gal6S(b1-4)Glc,-0.159
